# According to the supplement of paper PMC8728848:
# The list shows a part of the results.
# B1: GS13686A-pdi-553-26-553 (Parabacteroides distasonis) (protein)
# chain: NENPDKPTDDVNYNMNEPRLASTLRGGLIIEGNVEQRLKPLQIDFYSQMTVDGGGWGTKNYIQDDEWNNLVWEEYLKQIASINIVIRSLTEKDKDAYANTIAFARIWRVYVHTLAADKFGPMPFPAYEIVEANPPYKSLKDIYDEYFRELDAAINGFNDSAQPIFSDAGIDLIYKNDVSKWKRFANSLRLRLAVRLTEVDQEKCIAEANAAISSPAGLISDKADNAYMPPKADGSWGQDYNYTMFQITWSGPICMSKSVEKLVTNIGGVAWPQGVVNQTSGVAVSSVHPEKVDPRAPKIFQPGIENGDWKGLVYGPKAEEANTGIYQSKQCAELGFIIKDGYPYKSRPYDLFLSEEVHFLKAELYARGFIAGDAKSEYEAGVRASFATWGVTSEVDDYLTSTEKNEAGTSARYDDQQGAGNTALEKIITQKYIAGIPDLAQEGWNDKRRLNLPRLDVAVYRDQAVYNNNDKDILKSANFIKRMRYPTKESLINATEYEKGKSMLGGKGDIVSTPLWWDKNSNYCTSSK
# What was measured:
# Experiment in all cases: glycan array binding signal (z-score within array); higher = stronger binding
# Settings in all cases: glycan notation: IUPAC condensed, linker removed
# [1] = molecular target: GlcNAc(b1-3)Gal(b1-4)Glc
# Outline: (§1)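 Glycan array binding is given as a within-array Z-score, which can be read as non-binding when negative. The arrays, 3228 of them, came from the Consortium for Functional Glycomics database and were retained only where the protein sequence was available. Z-scores were averaged across arrays of the same protein sequence at different concentrations or buffers and across linkers.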
# [2] = molecular target: GlcNAc(b1-3)Gal(b1-4)GlcNAc
# Outline: as §1
# [3] = molecular target: GlcNAc(b1-3)Gal(b1-4)GlcNAc(b1-2)Man(a1-3)[GlcNAc(b1-3)Gal(b1-4)GlcNAc(b1-2)Man(a1-6)]Man(b1-4)GlcNAc(b1-4)GlcNAc
# Outline: as §1
# [4] = molecular target: GlcNAc(b1-3)Gal(b1-4)GlcNAc(b1-2)Man(a1-3)[GlcNAc(b1-3)Gal(b1-4)GlcNAc(b1-2)Man(a1-6)]Man(b1-4)GlcNAc(b1-4)[Fuc(a1-6)]GlcNAc
# Outline: as §1
# [5] = molecular target: GlcNAc(b1-3)Gal(b1-4)GlcNAc(b1-2)[GlcNAc(b1-3)Gal(b1-4)GlcNAc(b1-6)]Man(a1-6)[GlcNAc(b1-3)Gal(b1-4)GlcNAc(b1-2)Man(a1-3)]Man(b1-4)GlcNAc(b1-4)GlcNAc
# Outline: as §1
# [6] = molecular target: GlcNAc(b1-3)Gal(b1-4)GlcNAc(b1-3)Gal(b1-4)GlcNAc
# Outline: as §1
# [7] = molecular target: GlcNAc(b1-3)Gal(b1-4)GlcNAc(b1-3)Gal(b1-4)GlcNAc(b1-2)Man(a1-3)[GlcNAc(b1-3)Gal(b1-4)GlcNAc(b1-3)Gal(b1-4)GlcNAc(b1-2)Man(a1-6)]Man(b1-4)GlcNAc(b1-4)GlcNAc
# Outline: as §1
# [8] = molecular target: GlcNAc(b1-3)Gal(b1-4)GlcNAc(b1-3)Gal(b1-4)GlcNAc(b1-2)Man(a1-3)[GlcNAc(b1-3)Gal(b1-4)GlcNAc(b1-3)Gal(b1-4)GlcNAc(b1-2)Man(a1-6)]Man(b1-4)GlcNAc(b1-4)[Fuc(a1-6)]GlcNAc
# Outline: as §1
# [9] = molecular target: GlcNAc(b1-3)Gal(b1-4)GlcNAc(b1-3)Gal(b1-4)GlcNAc(b1-2)[GlcNAc(b1-3)Gal(b1-4)GlcNAc(b1-3)Gal(b1-4)GlcNAc(b1-6)]Man(a1-6)[GlcNAc(b1-3)Gal(b1-4)GlcNAc(b1-3)Gal(b1-4)GlcNAc(b1-2)Man(a1-3)]Man(b1-4)GlcNAc(b1-4)[Fuc(a1-6)]GlcNAc
# Outline: as §1
# [10] = molecular target: GlcNAc(b1-3)Gal(b1-4)GlcNAc(b1-3)Gal(b1-4)GlcNAc(b1-3)Gal(b1-4)GlcNAc(b1-2)Man(a1-3)[GlcNAc(b1-3)Gal(b1-4)GlcNAc(b1-3)Gal(b1-4)GlcNAc(b1-3)Gal(b1-4)GlcNAc(b1-2)Man(a1-6)]Man(b1-4)GlcNAc(b1-4)GlcNAc
# Outline: as §1
# [11] = molecular target: GlcNAc(b1-3)Gal(b1-4)GlcNAc(b1-3)Gal(b1-4)GlcNAc(b1-3)Gal(b1-4)GlcNAc(b1-2)Man(a1-3)[GlcNAc(b1-3)Gal(b1-4)GlcNAc(b1-3)Gal(b1-4)GlcNAc(b1-3)Gal(b1-4)GlcNAc(b1-2)Man(a1-6)]Man(b1-4)GlcNAc(b1-4)[Fuc(a1-6)]GlcNAc
# Outline: as §1
# [12] = molecular target: GlcNAc(b1-3)Gal(b1-4)GlcNAc(b1-3)Gal(b1-4)GlcNAc(b1-3)Gal(b1-4)GlcNAc(b1-2)[GlcNAc(b1-3)Gal(b1-4)GlcNAc(b1-3)Gal(b1-4)GlcNAc(b1-3)Gal(b1-4)GlcNAc(b1-6)]Man(a1-6)[GlcNAc(b1-3)Gal(b1-4)GlcNAc(b1-3)Gal(b1-4)GlcNAc(b1-3)Gal(b1-4)GlcNAc(b1-2)Man(a1-3)]Man(b1-4)GlcNAc(b1-4)[Fuc(a1-6)]GlcNAc
# Outline: as §1
# [13] = molecular target: GlcNAc(b1-3)Gal(b1-4)GlcNAc(b1-3)Gal(b1-4)GlcNAc(b1-3)Gal(b1-4)GlcNAc(b1-3)Gal(b1-4)GlcNAc(b1-2)Man(a1-3)[GlcNAc(b1-3)Gal(b1-4)GlcNAc(b1-3)Gal(b1-4)GlcNAc(b1-3)Gal(b1-4)GlcNAc(b1-3)Gal(b1-4)GlcNAc(b1-2)Man(a1-6)]Man(b1-4)GlcNAc(b1-4)GlcNAc
# Outline: as §1
# [14] = molecular target: GlcNAc(b1-3)Gal(b1-4)GlcNAc(b1-3)Gal(b1-4)GlcNAc(b1-3)Gal(b1-4)GlcNAc(b1-3)Gal(b1-4)GlcNAc(b1-2)Man(a1-3)[GlcNAc(b1-3)Gal(b1-4)GlcNAc(b1-3)Gal(b1-4)GlcNAc(b1-3)Gal(b1-4)GlcNAc(b1-3)Gal(b1-4)GlcNAc(b1-2)Man(a1-6)]Man(b1-4)GlcNAc(b1-4)[Fuc(a1-6)]GlcNAc
# Outline: as §1
# [15] = molecular target: GlcNAc(b1-3)Gal(b1-4)GlcNAc(b1-3)Gal(b1-4)GlcNAc(b1-3)Gal(b1-4)GlcNAc(b1-3)Gal(b1-4)GlcNAc(b1-2)[GlcNAc(b1-3)Gal(b1-4)GlcNAc(b1-3)Gal(b1-4)GlcNAc(b1-3)Gal(b1-4)GlcNAc(b1-3)Gal(b1-4)GlcNAc(b1-6)]Man(a1-6)[GlcNAc(b1-3)Gal(b1-4)GlcNAc(b1-3)Gal(b1-4)GlcNAc(b1-3)Gal(b1-4)GlcNAc(b1-3)Gal(b1-4)GlcNAc(b1-2)Man(a1-3)]Man(b1-4)GlcNAc(b1-4)[Fuc(a1-6)]GlcNAc
# Outline: as §1
# [16] = molecular target: GlcNAc(b1-3)Gal(b1-4)GlcNAc(b1-3)Gal(b1-4)GlcNAc(b1-3)GalNAc
# Outline: as §1
# [17] = molecular target: GlcNAc(b1-3)Gal(b1-4)GlcNAc(b1-3)GalNAc
# Outline: as §1
# [18] = molecular target: GlcNAc(b1-3)Gal(b1-4)GlcNAc(b1-3)[GlcNAc(b1-3)Gal(b1-4)GlcNAc(b1-3)]GalNAc
# Outline: as §1
# [19] = molecular target: GlcNAc(b1-3)Gal(b1-4)GlcNAc(b1-6)[Gal(b1-3)]GalNAc
# Outline: as §1
# [20] = molecular target: GlcNAc(b1-3)Gal(b1-4)GlcNAc(b1-6)[GlcNAc(b1-3)Gal(b1-3)]GalNAc
# Outline: as §1
# [21] = molecular target: GlcNAc(b1-3)Gal(b1-4)GlcNAc(b1-6)[GlcNAc(b1-3)]Gal(b1-4)GlcNAc
# Outline: as §1
# [22] = molecular target: GlcNAc(b1-3)GalNAc
# Outline: as §1
# [23] = molecular target: GlcNAc(b1-3)Man
# Outline: as §1
# [24] = molecular target: GlcNAc(b1-3)[GlcNAc(b1-4)][GlcNAc(b1-6)]GlcNAc
# Outline: as §1
# [25] = molecular target: GlcNAc(b1-3)[GlcNAc(b1-6)]Gal(b1-4)GlcNAc
# Outline: as §1
# [26] = molecular target: GlcNAc(b1-3)[GlcNAc(b1-6)]GalNAc
# Outline: as §1
# [27] = molecular target: GlcNAc(b1-4)Gal(b1-4)GlcNAc
# Outline: as §1
# [28] = molecular target: GlcNAc(b1-4)GlcNAc
# Outline: as §1
# [29] = molecular target: GlcNAc(b1-4)GlcNAc(b1-4)GlcNAc
# Outline: as §1
# [30] = molecular target: GlcNAc(b1-4)GlcNAc(b1-4)GlcNAc(b1-4)GlcNAc(b1-4)GlcNAc
# Outline: as §1
# [31] = molecular target: GlcNAc(b1-4)GlcNAc(b1-4)GlcNAc(b1-4)GlcNAc(b1-4)GlcNAc(b1-4)GlcNAc
# Outline: as §1
# [32] = molecular target: GlcNAc(b1-4)[GlcNAc(b1-6)]GalNAc
# Outline: as §1
# [33] = molecular target: GlcNAc(b1-6)Gal(b1-4)GlcNAc
# Outline: as §1
# [34] = molecular target: GlcNAc(b1-6)GalNAc
# Outline: as §1
# [35] = molecular target: GlcNAc6S(b1-3)Gal(b1-4)GlcNAc
# Outline: as §1
# [36] = molecular target: Kdn(a2-3)Gal(b1-3)GalNAc
# Outline: as §1
# [37] = molecular target: Kdn(a2-3)Gal(b1-3)GlcNAc
# Outline: as §1
binder,measurement,setting,value
B1,glycan array binding signal (z-score),[1],-0.215
same,glycan array binding signal (z-score),[2],-0.296
same,glycan array binding signal (z-score),[3],-0.085
same,glycan array binding signal (z-score),[4],-0.069
same,glycan array binding signal (z-score),[5],0.632
same,glycan array binding signal (z-score),[6],-0.028
same,glycan array binding signal (z-score),[7],0.227
same,glycan array binding signal (z-score),[8],0.075
same,glycan array binding signal (z-score),[9],0.282
same,glycan array binding signal (z-score),[10],0.039
same,glycan array binding signal (z-score),[11],0.14
same,glycan array binding signal (z-score),[12],0.202
same,glycan array binding signal (z-score),[13],0.144
same,glycan array binding signal (z-score),[14],0.258
same,glycan array binding signal (z-score),[15],-0.077
same,glycan array binding signal (z-score),[16],-0.174
same,glycan array binding signal (z-score),[17],-0.214
same,glycan array binding signal (z-score),[18],0.181
same,glycan array binding signal (z-score),[19],-0.309
same,glycan array binding signal (z-score),[20],0.163
same,glycan array binding signal (z-score),[21],-0.425
same,glycan array binding signal (z-score),[22],-0.19
same,glycan array binding signal (z-score),[23],-0.065
same,glycan array binding signal (z-score),[24],-0.116
same,glycan array binding signal (z-score),[25],-0.192
same,glycan array binding signal (z-score),[26],-0.122
same,glycan array binding signal (z-score),[27],-0.1
same,glycan array binding signal (z-score),[28],-0.294
same,glycan array binding signal (z-score),[29],-0.263
same,glycan array binding signal (z-score),[30],-0.095
same,glycan array binding signal (z-score),[31],-0.22
same,glycan array binding signal (z-score),[32],-0.314
same,glycan array binding signal (z-score),[33],-0.023
same,glycan array binding signal (z-score),[34],-0.092
same,glycan array binding signal (z-score),[35],0.299
same,glycan array binding signal (z-score),[36],0.071
same,glycan array binding signal (z-score),[37],-0.375
